About 30 (2%) of roughly 1,200 compounds were called active. Roughly 23% stayed inconclusive and do not appear here. The call rests on the fitted dose curve; in most records, active means well fitted inhibition curve with a large enough effect; inconclusive means small, poorly fitted or top-dose-only effect; inactive means flat fitted curve, though single readings scatter. The list shows a part of the results.
Biological target: Single-stranded DNA cytosine deaminase (Homo sapiens) (UniProt Q9GZX7)
Assay: Confirmatory qHTS assay for inhibitors of Activation Induced Cytidine Deaminase (AID): AID signals
Settings: recombinant AID, FRET deamination/UDG coupled fluorescence, 4 h; series mostly up to 115 µM; activity, negative = inhibition: at the top concentration
How it was run: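 Read 1 (AID) was measured at 540 ex/590 em after a 30 min NaOH step. The reaction was AID (1 uM, 4/3x stock) with UDG, compound at final 7.32 nM - 114 uM for 10 min, then DJC20/DJC23 substrate for 4 hr at room temperature. A UDG read at 560/665 serves as counterscreen.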
On the % scale 0 is the no-effect control and ±100 the full control effect; potency means the concentration at half of the fitted maximal effect.

Sequence of UniProt Q9GZX7 (Q9GZX7 whole entry, looked up): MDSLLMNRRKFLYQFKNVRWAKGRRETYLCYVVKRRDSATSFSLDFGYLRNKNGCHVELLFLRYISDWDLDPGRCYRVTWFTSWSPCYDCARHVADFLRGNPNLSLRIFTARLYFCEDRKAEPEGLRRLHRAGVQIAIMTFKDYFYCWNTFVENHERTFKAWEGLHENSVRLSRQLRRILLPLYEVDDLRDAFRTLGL

| SMILES | activity, negative = inhibition | Potency |
| --- | --- | --- |
| COc1ccc(CCNC(=O)c2cc(Nc3cc(C)cc(C)c3)nc3ccccc23)cc1OC | inactive: -13.5% |  |
| CCCCOc1ccc(C(=O)N2CCC(c3nc4ccccc4o3)CC2)cc1 | inactive: -18.9% |  |
| CCOC(=O)C1=C(C)NC(=O)NC1c1cn(-c2ccccc2)nc1-c1ccc(OC(C)C)cc1 (stereo not drawn) | inactive: -1.47% |  |
| O=C(CSc1nc(-c2cccs2)nc2cc(=O)[nH]n12)Nc1cccc(C(F)(F)F)c1 | inactive: 1.5% |  |
| CCCOc1ccc(-c2nn(-c3ccccc3)cc2C2NC(=O)NC(C)=C2C(=O)OC)cc1 (stereo not drawn) | inactive: -9.67% |  |
| CCCCOc1ccc(C(=O)Nc2ccc(S(=O)(=O)Nc3nc(C)cc(C)n3)cc2)cc1 | inactive: 3.2% |  |
| CCCCOc1ccc(C(=O)N2CC(=O)Nc3ccc(Br)cc3C2c2ccc(F)cc2)cc1 (stereo not drawn) | inactive: -9.47% |  |
| COc1ccc(-c2cn3cccnc3n2)cc1NC(=O)Nc1cc(C)ccc1C | inactive: -13.7% |  |
| Cc1ccc(Cl)cc1N1CCN(C(=O)c2cc3ccc4cccnc4c3[nH]2)CC1 | inactive: -16.7% |  |
| COc1ccccc1C(=O)NCCn1cc(SCC(=O)Nc2ccccc2F)c2ccccc21 | inactive: 4.48% |  |
| Cc1ccc(-c2nc(NC(=O)CSc3cc(C)c4ccccc4n3)ns2)cc1 |  | active: 28.2 µM |
| COc1ccc(C)cc1NC(=O)c1c(C)oc2ncn(CC(C)C)c(=O)c12 | inactive: -3.76% |  |
| CCCn1cc(S(=O)(=O)c2ccccc2)c(=O)c2cc(F)c(N3CCCC(C)C3)cc21 (stereo not drawn) | inactive: 5.07% |  |
| CCOc1ccc(/C=C/c2nc(C#N)c(NCc3ccccc3)o2)cc1 | inactive: 6.33% |  |
| COc1ccc(Nc2oc(-c3ccc(COc4ccccc4C)o3)nc2C#N)cc1 | inactive: -0.14% |  |
| CC(C)(C)c1ccc(OCc2nc3ccccc3n2CCOc2ccccc2)cc1 | inactive: -15.7% |  |
| COc1cccc(N2CCN(C(=O)c3cnn(-c4ccc(C)cc4C)c3C3CCN(C(=O)OC(C)(C)C)CC3)CC2)c1 | inactive: -2.94% |  |
| COc1ccc(-c2noc(N3CCC(C(=O)N(C)c4cc(Cl)ccc4OC)CC3)n2)cc1 | inactive: -4.38% |  |
| Cc1ccc(C)c(N2CCN(C(=O)c3cc(S(=O)(=O)N4CCC(C)CC4)cn3C)CC2)c1 | inactive: -14.5% |  |
| CC1=C(C(=O)Nc2ccccc2)C(c2cc(Br)ccc2F)n2ncc(C(=O)Nc3ccccc3)c2N1 (stereo not drawn) | inactive: 1.96% |  |

| SMILES | activity, negative = inhibition | Potency |
| --- | --- | --- |
| O=C(O)c1ccc2c(c1)N(Cc1ccc(F)cc1Cl)C(=O)c1ccccc1S2 | inactive: -9.29% |  |
| CCOCCCNC(=O)c1cn(CC)c2ccc(S(=O)(=O)N3CCc4ccccc4C3)cc2c1=O | inactive: -4.56% |  |
| CCOC(=O)c1c(Oc2ccc(C(C)=O)cc2)nnc(-c2ccccc2)c1-c1ccccc1 | inactive: 2.35% |  |
| CCN(CC)CCCNC(=O)c1ccc2c(Cl)c3c(nc2c1)CCCC3 | inactive: -3.87% |  |
| Cc1ccc(N2CCN(C(=O)NCc3noc4ccc(C)cc34)CC2)c(C)c1 | inactive: -17.2% |  |
| O=C(CC1N=C2c3ccccc3N=C(SCc3cccc(Cl)c3)N2C1=O)NCCc1ccccc1 (stereo not drawn) | inactive: -18.7% |  |
| CCOC(=O)N1CCc2c(sc(NCc3cccs3)c2C(=O)Nc2ccc(OC)cc2OC)C1 | inactive: 34.4% |  |
| COc1ccc(CC(=O)N(Cc2nc(-c3ccc(C)cc3)no2)C(C)C)cc1 | inactive: -2.5% |  |
| CCOc1ccc(N(CC)C(=O)CCc2nc(-c3ccccc3F)no2)cc1 | inactive: -12.6% |  |
| Cc1nc(-n2nc(C)c(CCC(C)C)c2C)sc1C(=O)Nc1cccc(Cl)c1 | inactive: -12.4% |  |
| COc1ccccc1CC(=O)Nc1ccc2nc(Nc3cccc(C(F)(F)F)c3)cc(C)c2c1 | inactive: -2.77% |  |
| Cc1ccc(Cl)cc1N1CCN(C(=O)c2cnn(C)c2C2CCN(C(=O)OC(C)(C)C)CC2)CC1 | inactive: -27.2% |  |
| COc1ccc(C2CC(=O)N3CN(C4CCCCC4)CSC3=C2C#N)c(OC)c1 (stereo not drawn) | inactive: -10.8% |  |
| Cc1c(C(=O)NCc2cccc(Cl)c2)sc2nc3n(c(=O)c12)CCCC3 | inactive: -6.11% |  |
| CCn1c(C)c(C)c2cc(C(=O)N3CCN(c4ccccc4)CC3)ccc21 | inactive: -1.49% |  |
| Cc1ccc(C)c(CN2C(=O)c3ccccc3S(=O)c3ccc(C(=O)N4CCC(C)CC4)cc32)c1 (stereo not drawn) | inactive: -10.6% |  |
| COc1cc(NC(=O)CC(c2ccc(C)cc2)N2Cc3ccccc3C2=O)cc(OC)c1 (stereo not drawn) | inactive: -5.69% |  |
| Cc1ccc(-c2nc3nc(C)cc(C)n3c2Nc2ccc3c(c2)OCCO3)cc1 | inactive: -18.3% |  |
| Cc1cccc(CNC(=O)c2oc3c(c2C)-c2nn(Cc4cccc(Cl)c4)cc2CC3)c1 | inactive: 13.1% |  |
| CCOC(=O)N1CCc2c(sc(NCc3ccc(N(C)C)cc3)c2C(=O)Nc2ccc(OC)cc2)C1 | inactive: 13.4% |  |

| SMILES | activity, negative = inhibition | Potency |
| --- | --- | --- |
| CCOC(=O)c1c(Nc2cc(C)cc(C)c2)nnc(-c2ccccc2)c1-c1ccccc1 | inactive: 6.32% |  |
| CCOc1ccccc1C(=O)N(Cc1cccs1)c1ccc(Cl)cc1 | inactive: -17% |  |
| COc1ccc(C)cc1NC(=O)COCc1cc(-c2ccc(F)cc2)on1 | inactive: -0.715% |  |
| CC(C)c1ccc(NC(=O)CSC2=Nc3ccccc3C3=NC(CCC(=O)NCc4ccco4)C(=O)N23)cc1 (stereo not drawn) | inactive: 15.2% |  |
| Cc1ccc(C)c(Oc2nc3c(c(=O)n(C)c(=O)n3C)n2Cc2ccccc2)c1 | inactive: -22.8% |  |
| COc1ccccc1C(=O)Oc1c(Sc2ccccc2)c(C)nn1-c1ccccc1 | inactive: 3.97% |  |
| CC(C)CCn1c(Oc2ccccc2F)nc2c1c(=O)n(C)c(=O)n2C | inactive: -11.2% |  |
| Cc1ccc(Cl)cc1N1CCN(C(=O)c2ccc(CS(=O)c3ccccc3)o2)CC1 (stereo not drawn) | inactive: -17.9% |  |
| CC(C)(C)c1ccc(S(=O)(=O)c2cnc(SCC(=O)Nc3ccc(F)c(Cl)c3)[nH]c2=O)cc1 |  | active: 35.5 µM |
| CN(C(=O)c1oc(=O)c2ccccc2c1-c1ccccc1)c1cccc(Cl)c1 | inactive: -18% |  |
| CCN1CCN(CCCNC(=O)c2ccc3c(c2)sc2nc(-c4ccc(C)cc4)cn23)CC1 | inactive: -13.8% |  |
| Cc1cccc(-n2ncc(C(=O)NCc3ccco3)c2C2CCN(C(=O)OC(C)(C)C)CC2)c1 | inactive: -2.91% |  |
| CCOc1ccc(NC(=O)Cn2c(=O)n(Cc3ccccc3)c(=O)c3c4c(sc32)CN(C(C)=O)CC4)cc1 | inactive: -5.22% |  |
| Cc1cccc(OCC(=O)N(Cc2cccc(Cl)c2)Cc2ccco2)c1C | inactive: -14.2% |  |
| Cc1ccc(C)c(N2CCN(C(=O)c3cc(S(=O)(=O)N4CCCCC4)cn3C)CC2)c1 | inactive: -12% |  |
| CCCC(=O)Oc1c(Sc2ccc(Cl)cc2)c(C)nn1-c1ccccc1 | inactive: -4.16% |  |
| COc1ccc(N2CCN(C(=O)c3nn(C)c4c3CSc3ccccc3-4)CC2)cc1 | inactive: -29.2% |  |
| Cc1ccc(C)c(NC(=O)Cn2c(=O)n(Cc3ccco3)c(=O)c3ccc(C(=O)NC4CCCC4)cc32)c1 | inactive: 6.02% |  |

From PubChem BioAssay AID1347434 (National Center for Advancing Translational Sciences (NCATS), 2020)
